Experimental data taken from PubChem BioAssay AID624296 (National Center for Advancing Translational Sciences (NCATS), 2012).
The campaign covered roughly 350,000 compounds. About 9,900 (2.8%) were called active. Inconclusive results, whose numbers are uncertain, are shown with a selection of clear calls. The call rests on the fitted dose curve; in most records, active means well fitted activation curve with a large enough effect; inconclusive means small, poorly fitted or top-dose-only effect; inactive means no such curve, though single readings can be large or run the other way. No potency is given beside an inconclusive call; the fits are too rough.

experiment: A quantitative high throughput screen for small molecules that induce DNA re-replication in MCF 10a normal breast cells.; further: nearly all actives have a fitted effect of over 50% in size; on activity, positive = re-replication: % of control where 0% means no effect; conditions: MCF 10A DNA re-replication, Hoechst nuclear intensity, 48 h; activity, positive = re-replication: at 46.1 µM (top of the series)
Potency means the concentration at half of the fitted maximal effect; tags describe the fitted curve by direction and shape.

| Compound | activity, positive = re-replication | Potency |
| --- | --- | --- |
| Cc1ccc(NC(=O)Nc2cccc3ccccc23)cc1 | inactive: -0.298% |  |
| CCn1c(/C=C/c2ccccc2C)nc2ccccc2c1=O |  | inconclusive [activator, single point] |
| NS(=O)(=O)c1ccc(Nc2nc(-c3ccc4ccccc4c3)cs2)cc1 |  | inconclusive [activator, full curve, poor fit] |
| C=C1C(=O)OC2C1CCC(C)=C1C(=O)C3OC3(C)C12 (centres undefined) |  | inconclusive [activator, full curve, poor fit] |
| COc1ccc(CN(C)C(=O)C(Cc2ccccc2)NC(=O)c2ccccc2)cc1F (centres undefined) |  | inconclusive [activator, single point] |
| COC(=O)Cn1ccc(N(C)C)c(C#N)c1=O |  | active: 9.2 µM |
| CN(C)c1cccc(/C=C(\C#N)c2ccccc2)c1 |  | inconclusive [activator, single point] |
| CC12CCC(=O)C=C1CCC1C2C(O)CC2(C)C1CCC21OCC1=O (centres undefined) | inactive: 8.71% |  |
| C=CCn1c(SCC(=O)c2ccc(NS(=O)(=O)c3ccccc3)cc2)nnc1-c1cccs1 |  | inconclusive [activator, single point] |
| O=c1ccnc(Nc2ccc3c(c2)OCCO3)[nH]1 | inactive: -1.89% |  |
| O=C(NCC1CCCO1)c1cc(-c2ccccc2)nc2ccccc12 (centres undefined) | inactive: 7.3% |  |
| COc1ccccc1CN(Cc1cc2cc(C)cc(C)c2[nH]c1=O)Cc1nnnn1CC1CCCO1 (centres undefined) |  | inconclusive [activator, full curve, poor fit] |
| COc1ccc2cc(C(c3nnnn3Cc3ccc(F)cc3)N3CCCCCC3)c(=O)[nH]c2c1 (centres undefined) |  | inconclusive [activator, single point] |
| CCCc1[nH]nc2c1C(C1CC=CCC1)C(C#N)=C(N)O2 (centres undefined) | inconclusive: 98.5% [activator] | inconclusive [activator, single point] |
| Cc1ccc(Nc2nc(N)nc(CSC(=S)N3CCOCC3)n2)c(C)c1 | inactive: 9.97% |  |
| Cc1ccc(OCCCC(=O)Nc2cc(Cl)ccc2-n2cncn2)cc1 | inactive: 6.83% |  |
| Cc1ccc(C(=O)c2c3ccccc3[n+]([O-])n2[C@@H](C)C(N)=O)cc1 |  | inconclusive [activator, single point] |
| O=c1[nH]c(C(F)(F)C(F)(F)C(F)(F)F)no1 | inactive: 5.39% |  |
| CCCCc1ccc(NC(=O)CSC2=C(C#N)C(c3ccco3)C3=C(CCCC3=O)N2)cc1 (centres undefined) |  | active: 3.98 µM |
| Cc1ccc(C(=O)N2CCSC2=S)cc1 |  | inconclusive [activator, full curve, poor fit] |
| Cc1nc(=O)c(-c2ccccc2)c(C)n1Cc1ccccc1 |  | inconclusive [activator, single point] |
| CC(C)(C)C(=O)Nc1ccc(C(=O)Nc2cc(NC(=O)c3ccc(NC(=O)C(C)(C)C)cc3)cc(C(=O)O)c2)cc1 |  | inconclusive [activator, single point] |
| Cc1cc(C)n(CC(=O)NC2CCCc3c2cnn3-c2ccc(C)c(C)c2)n1 (centres undefined) |  | inconclusive [activator, partial curve, poor fit] |

| Compound | activity, positive = re-replication | Potency |
| --- | --- | --- |
| O=C(CCOc1ccccc1)Nc1ccc(Br)cc1 |  | inconclusive [activator, single point] |
| CCCCOc1ccc(-c2nnn(CC(=O)Nc3ncc(CC(=O)OCC)s3)n2)cc1 |  | inconclusive [activator, full curve] |
| CN(CCO)c1nc(NCc2ccccc2)c2cnn(C)c2n1 |  | inconclusive [activator, single point] |
| CCOC(=O)CC(NC(=O)c1cccc2c1C(=O)N(Cc1cccnc1)C2)c1ccc(OCC)c(OC)c1 (centres undefined) |  | inconclusive [activator, single point] |
| CC1(C)CC(N2CCCCC2)=CC(=[N+]2CCCCC2)C1 | inactive: 24.3% |  |
| NS(=O)(=O)c1cccc(NC(=O)CSc2ncnc3ccccc23)c1 |  | inconclusive [activator, single point] |
| Cc1ccccc1NC(=O)c1ccc(Nc2c([N+](=O)[O-])cc([N+](=O)[O-])c3ccccc23)cc1 | inactive: -2.66% |  |
| CN1CCN(CC(=O)N2c3ccccc3Sc3ccccc32)CC1 | inactive: 0.598% |  |
| O=C(N/N=C/c1cccs1)c1ccc2ccccc2c1 |  | active: 23.1 µM |
| O=C(Nc1ccc(N2CCOCC2)cc1)c1ccc2nc(-c3ccco3)c(-c3ccco3)nc2c1 |  | inconclusive [activator, partial curve, poor fit] |
| CC/C(=N/Nc1cccc(C)c1)c1cnnc(SC)n1 |  | inconclusive [activator, partial curve] |
| CCOc1ccccc1OCCCC(=O)Nc1ccc(Cl)c(S(=O)(=O)N2CCOCC2)c1 | inactive: 9.37% |  |
| COC(=O)[C@H](NCc1ccc(OC)c(B(O)O)c1)C(C)C |  | inconclusive [activator, single point] |
| CC(C)C(=O)N1CCc2cc(-c3csc(N)n3)ccc21 |  | inconclusive [activator, single point] |
| COc1ccc(OCC(=O)Nc2sc3c(c2C(=O)NCC2CCCO2)CCC3)cc1 (centres undefined) | inactive: 18% |  |
| COc1ccc2nc(SCC(=O)Nc3ccc4sc(C)nc4c3)c(C#N)cc2c1 |  | inconclusive [activator, single point] |
| CCOC(=O)C(=O)/C(C#N)=C/Nc1ccccc1 | inactive: 0.779% |  |
| COc1ccc(C)cc1NC(=O)CN1C(=O)COc2ccc(S(=O)(=O)N3CCC(C)CC3)cc21 | inactive: 7.36% |  |
| O=C(Nc1ccc(F)cc1)N(Cc1ccco1)Cc1cc2cc3c(cc2[nH]c1=O)OCO3 |  | active: 18.4 µM |
| CCCn1ncc(CN2CCC(CO)(Cc3ccc(OC)cc3)CC2)c1C |  | inconclusive [activator, partial curve, poor fit] |
| COCCCNc1nc2ccccc2nc1NS(=O)(=O)c1ccc(OC)cc1 | inactive: -3.21% |  |
| COc1ccc(Cc2c3cc(OC)c(OC)cc3cc[n+]2C)cc1OC | inactive: 1.4% |  |
| COc1ccccc1CC(=O)Nc1ccc(-c2noc(COc3ccc(Cl)c(C)c3)n2)cc1 |  | inconclusive [activator, single point] |

| Compound | activity, positive = re-replication | Potency |
| --- | --- | --- |
| CC(OC(=O)c1cccc(N(C)C)c1)C(=O)N1CCc2ccccc2C1 (centres undefined) | inactive: 12% |  |
| CC(C)C1OC(c2cccc(NC(=O)c3cccs3)c2)OCC1(C)C (centres undefined) |  | inconclusive [activator, partial curve] |
| O=C(Nc1nc2c(Br)cccc2s1)C1CC1 |  | inconclusive [activator, single point] |
| COCCN1Cc2cc3cc(C)ccc3nc2SC1=Nc1cccc(OC)c1 |  | inconclusive [activator, single point] |
| Cc1ccc(S(=O)(=O)/N=C2\C=C(Nc3cccc(C(=O)O)c3)C(=O)c3ccccc32)cc1 |  | inconclusive [activator, single point] |
| Nc1nonc1-n1nnc(C(=O)N/N=C/c2ccccc2Cl)c1-c1ccc2c(c1)OCO2 | inactive: 1.35% |  |
| CN(C(=O)c1cccc(NC(=O)Cc2ccc(NC(=O)C3CCCN(C(=O)C4CCCCC4)C3)cc2)c1)C1CCCCC1 (centres undefined) |  | inconclusive [activator, full curve, poor fit] |
| COc1cc2oc(=O)cc(-c3cccc(-c4ccc(C(F)(F)F)cc4)c3)c2c(OC)c1OC |  | inconclusive [activator, full curve] |
| O=C(NCC1CCCO1)C(=Cc1cccc([N+](=O)[O-])c1)C(=O)NCC1CCCO1 (centres undefined) |  | inconclusive [activator, single point] |
| Oc1ccc(Br)cc1/C=N/n1c(C2CCCCC2)n[nH]c1=S |  | inconclusive [activator, partial curve, poor fit] |
| Cc1ccccc1CC1(CO)CCCN(C(=O)c2ccccc2Cl)C1 (centres undefined) |  | inconclusive [activator, full curve, poor fit] |
| Nc1nc2nonc2nc1N |  | inconclusive [activator, single point] |
| COc1ccccc1C(=O)Nc1nc(-c2ccc3c(c2)OCCO3)cs1 |  | inconclusive [activator, partial curve, poor fit] |
| CC(=O)Nc1cc(C(=O)N(C)Cc2ccco2)ccc1Sc1ccc(Cl)cc1 |  | inconclusive [activator, single point] |
| COc1ccccc1NC(=O)Cn1cc(C(=O)C(=O)N2CCOCC2)c2ccccc21 |  | inconclusive [activator, single point] |
| O=C(N/N=C/c1ccc(OCc2ccccc2)cc1)c1ccc(O)cc1 |  | inconclusive [activator, partial curve, poor fit] |
| CC(=O)N/C(=C\c1ccc(Br)s1)C(=O)O |  | inconclusive [activator, single point] |
| CCN1CCN(c2cc(SC(C)C)nc(-c3ccc(OC)cc3)n2)CC1 |  | inconclusive [activator, single point] |
| CC(=O)Oc1c(-c2ccco2)oc2ccccc2c1=O |  | inconclusive [activator, single point] |
| CCCCNc1c(-c2ccc(-c3ccc(C(C)=O)cc3)c(OC)c2)nc2cc(C)ccn12 |  | inconclusive [activator, single point] |
| CCOc1cc(/C=C2\CN(CC)C/C(=C\c3ccc(O)c(OCC)c3)C2=O)ccc1O |  | inconclusive [activator, single point] |
| CC(=O)c1cccc(NC(=O)CN2C(=O)NC3(CCCCCCC3)C2=O)c1 |  | inconclusive [activator, full curve, poor fit] |
